Screen size: about 150,000 compounds; about 540 (0.36%) showed an effect of 50% or more. The list shows a part of the results.
What follows are molecules tested on Plasmodium falciparum (assay: Primary screen in NF54 nanoGlo assay, in single point, at 2uM, 72h; a lower Z score goes with more inhibition). Conditions: timepoint 72 hour.
Type: functional, Erythrocyte
`O=C1C2ON(c3ccccc3)C(c3ccc(-c4ccc(Br)cc4)o3)C2C(=O)N1c1cccc2ccccc12` (stereo not given) was tested, and the “% Inhibition” value was -9% and the Z score was 0.84.
For `C[C@H](NC(=O)c1ccoc1)C(=O)Nc1ncccc1O`, the “% Inhibition” value was -4% and the Z score was 0.37.
For `Fc1ccc(-c2cc(-c3ccc(Br)cc3)nc3c2COc2ccccc2-3)cc1`, the “% Inhibition” value was -8% and the Z score was 0.91.
With `C=CCN1CC[C@H](N(C)Cc2cn(C)nn2)C1=O` the “% Inhibition” value was 5% and the Z score was -0.46.
For `CCc1nc(Cc2noc(CC3CCOC(CC)C3)n2)cs1` (stereo not given), the “% Inhibition” value was -9% and the Z score was 1.8.
With `CN(C)Cc1ccc(-c2nc3c([nH]2)CCCNC3=O)cc1` the “% Inhibition” value was -1% and the Z score was 0.1.
With `Cc1ccc(-c2nnc(N3CCC(C(=O)NCc4ccccc4C)CC3)o2)cc1` the “% Inhibition” value was -2% and the Z score was 0.3.
For `Cc1cccc2c1C[C@H](NC(=O)c1ccnc(C3CC3)c1)CO2`, the “% Inhibition” value was -5% and the Z score was 0.79.
In the case of `Cc1cc(C(=O)N2CC[C@H]3[C@H](CCC(=O)N3CCc3cccs3)C2)on1`, the “% Inhibition” value was -11% and the Z score was 1.06.
For `Cn1c(O)c(C(=O)Nn2c(Cc3ccccc3)nc3ccccc3c2=O)c(=O)c2ccccc21`, the “% Inhibition” value was -11% and the Z score was 0.96.
With `O=C(CCc1cc2n(n1)CCCN(Cc1ccccc1)C2)NC1CCCC1` the “% Inhibition” value was -11% and the Z score was 1.07.
In the case of `Cc1noc(C)c1CO[C@H]1COCC[C@@H]1NC(=O)c1cn[nH]c1`, the “% Inhibition” value was -10% and the Z score was 1.93.
`COc1cc(C2CN(C(=O)NC(C)C)CC2C(=O)N2CCOCC2)cc(OC)c1OC` (stereo not given) was tested, and the “% Inhibition” value was -6% and the Z score was 0.67.
For `COCCNC(=O)c1ccc(Nc2c(Oc3ccc(F)cc3)cnn(-c3ccc(F)cc3)c2=O)cc1`, the “% Inhibition” value was 1% and the Z score was -0.18.
In the case of `Cc1cc(CC(=O)N[C@H]2CCCN(c3ccc(Cl)cc3Cl)C2)n[nH]1`, the “% Inhibition” value was 7% and the Z score was -1.13.
`CCN(CC)[C@@H](CNC(=O)COC1CCCC1)c1ccco1` was tested, and the “% Inhibition” value was -9% and the Z score was 1.28.
In the case of `CC(NCC1CCCn2ccnc21)c1ccc(F)c(F)c1` (stereo not given), the “% Inhibition” value was -8% and the Z score was 1.07.
With `COc1ncccc1C(=O)N1CC(Oc2cc(C)nc3ncnn23)C1` the “% Inhibition” value was 13% and the Z score was -1.74.
With `O=C(NC1CCCCCCC1)C1=Cc2ccccc2OC1` the “% Inhibition” value was -20% and the Z score was 1.87.
For `CCc1cc(C#N)ccc1NC(=O)N1CCNC(=O)[C@@H]1Cc1c[nH]cn1`, the “% Inhibition” value was -13% and the Z score was 1.13.
`O=S(=O)(Oc1cccc2cccnc12)c1ccc(Br)c2ccccc12` was tested, and the “% Inhibition” value was -47% and the Z score was 5.51.
With `CC(C)N1CCO[C@@H](CC(=O)NCC2(Cn3ccnc3)CC2)C1` the “% Inhibition” value was -3% and the Z score was 0.49.
In the case of `CN1CCC[C@H]1C(=O)N1CCC(C(=O)NC2CCCCCC2)CC1`, the “% Inhibition” value was -9% and the Z score was 1.52.
For `CCC(=O)Nc1cccc(-c2noc([C@H]3CCCN(C(=O)c4ccc(F)c(Cl)c4)C3)n2)c1`, the “% Inhibition” value was -9% and the Z score was 1.08.
For `Cc1ccc(C(=O)c2ccc(Br)cc2)cc1S(=O)(=O)Nc1ccccn1`, the “% Inhibition” value was -10% and the Z score was 1.23.
In the case of `Cc1ccc(NC(=O)c2oc(CO)cc2C)c(C)n1`, the “% Inhibition” value was -2% and the Z score was 0.41.
`Cc1ccc(NS(=O)(=O)c2ccc(-c3cnc(C4CCC4)o3)s2)c(Cl)c1` was tested, and the “% Inhibition” value was -8% and the Z score was 0.88.
In the case of `Cn1c(=O)sc2cc(NC(=O)Cc3ccccc3Cl)ccc21`, the “% Inhibition” value was -5% and the Z score was 0.58.
With `c1cc(CN2CCC[C@H]2c2nc(C3CC3)no2)c2nonc2c1` the “% Inhibition” value was -6% and the Z score was 0.89.
In the case of `CCCCN1C(=O)C2C(CC(C)C)NC3(C(=O)Nc4ccc(Cl)cc43)C2C1=O` (stereo not given), the “% Inhibition” value was -20% and the Z score was 2.56.
In the case of `Cc1cc(CS(=O)(=O)Cc2noc(-c3cccs3)n2)no1`, the “% Inhibition” value was -11% and the Z score was 2.14.
With `COc1ccc(CN2CC[C@H](N(CCCN3CCOCC3)S(C)(=O)=O)C2)cc1C` the “% Inhibition” value was -2% and the Z score was 0.22.
In the case of `COc1cccc(C(=O)N2CCN(C(=O)Cn3cc(Cl)cn3)CC2)c1`, the “% Inhibition” value was -4% and the Z score was 0.42.
`OCC(F)(F)CN1CCN(c2nc3ccccc3n3cncc23)CC1` was tested, and the “% Inhibition” value was 3% and the Z score was -0.5.
In the case of `O=S1(=O)CC[C@H](NCc2cccc3ccccc23)C1`, the “% Inhibition” value was -15% and the Z score was 2.05.
In the case of `COc1cc(Br)cc(F)c1C#N`, the “% Inhibition” value was -3% and the Z score was 0.33.
`COc1cc2c(c(-c3nc(OC)c4cnn(-c5ccccc5)c4n3)c1)NC(C)(C)C=C2C` was tested, and the “% Inhibition” value was -10% and the Z score was 1.3.
With `Cc1oc(C(C)(C)C)cc1CN1CC[C@H](NS(C)(=O)=O)C1` the “% Inhibition” value was -7% and the Z score was 0.88.
For `CCCOc1ccc([C@@H](N)C(=O)OCC)cc1`, the “% Inhibition” value was -9% and the Z score was 1.1.
In the case of `CCc1nc(C)sc1C(=O)NC1(COC)CCCC1`, the “% Inhibition” value was -6% and the Z score was 0.77.
In the case of `O=C(NCc1ccc(NC(=O)c2ccc(F)cc2)cc1)C1=COCC1`, the “% Inhibition” value was -10% and the Z score was 1.35.
For `C[C@@H](CNC(=O)N1CCCC1(C)C)CN(C)C(=O)OC(C)(C)C`, the “% Inhibition” value was 1% and the Z score was -0.11.
For `COc1ccccc1Cn1cnc2c1c(=O)n(C1CCCCC1)c(=O)n2-c1ccccc1Cl`, the “% Inhibition” value was 69% and the Z score was -6.45.
In the case of `Cc1ccccc1C(=O)N[C@@H]1CCCC[C@H]1NC(=O)C1CCCN(C(=O)c2cccc(F)c2)C1` (stereo not given in full), the “% Inhibition” value was -3% and the Z score was 0.26.
For `O=C(NCc1nccs1)c1sccc1OC(F)F`, the “% Inhibition” value was -5% and the Z score was 0.44.
In the case of `COc1ccccc1OCCN1C[C@@H](C(=O)NCC2CCOCC2)CC1=O`, the “% Inhibition” value was -5% and the Z score was 0.7.
`O=C1CC2(CCN(c3cnc4ccc(Cl)cc4n3)CC2)CN1` was tested, and the “% Inhibition” value was -4% and the Z score was 0.54.
In the case of `O=S(=O)(c1cccnc1)N1CCCN(C2CCC2)CC1`, the “% Inhibition” value was -11% and the Z score was 1.96.
With `CN(c1ccc(Cl)cn1)S(C)(=O)=O` the “% Inhibition” value was -4% and the Z score was 0.57.
In the case of `NC(=O)Cc1nc(CCCn2cccn2)n(Cc2ccccc2Cl)n1`, the “% Inhibition” value was 1% and the Z score was -0.17.
For `CC(C)c1ocnc1CN[C@@H](C)c1ccc(S(C)(=O)=O)c(F)c1`, the “% Inhibition” value was -1% and the Z score was 0.23.
`Cc1cc(C)cc(OCC(=O)Nc2nc(C)ns2)c1` was tested, and the “% Inhibition” value was -14% and the Z score was 1.93.
In the case of `O=C(Cc1cccc(Cl)c1)N[C@@H]1C[C@H]2OCC[C@@H]12`, the “% Inhibition” value was 4% and the Z score was -0.57.
In the case of `COCC1(NC(=O)Cc2c(C)nn(CC(F)(F)F)c2C)CCCC1`, the “% Inhibition” value was 34% and the Z score was -3.84.
For `C#CCCC1(CCC(=O)N2CCC[C@H]2c2ccc(OC)c(F)c2)N=N1`, the “% Inhibition” value was -15% and the Z score was 1.89.
`CC(C)c1cc(NCCc2n[nH]c(N)n2)ncn1` was tested, and the “% Inhibition” value was -9% and the Z score was 1.
With `O=C(CCC1CCCCC1)Nc1ccn(CC(=O)N2CCOCC2)n1` the “% Inhibition” value was -4% and the Z score was 0.54.
`COCCO[C@H]1CCOC2(CCN(C(=O)Cc3cccc(C)c3)CC2)C1` was tested, and the “% Inhibition” value was 35% and the Z score was -5.13.
With `c1ccc(Cc2n[nH]c3c2CN(c2nnnn2-c2ccccc2)CC3)cc1` the “% Inhibition” value was 0% and the Z score was -0.05.
For `Cn1nccc1-c1csc(S(=O)(=O)NC2CCCC2)c1`, the “% Inhibition” value was 1% and the Z score was -0.09.
`OC1CN(c2nc([C@H]3CCOC3)cc(N3CC(c4ccccn4)C3)n2)C1` was tested, and the “% Inhibition” value was -25% and the Z score was 2.2.
`Cc1cc(CNC(=O)c2ncoc2-c2ccco2)c(C)o1` was tested, and the “% Inhibition” value was 34% and the Z score was -3.79.
`Cc1nc(C)c(C(=O)N2CC[C@H](CCc3noc(C4CC4)n3)C2)s1` was tested, and the “% Inhibition” value was 4% and the Z score was -0.57.
`CN(C)C(=O)c1ccc(NC(=O)N2CCC(O)(C3CCC3)CC2)nc1` was tested, and the “% Inhibition” value was -9% and the Z score was 1.74.
With `Cc1csc(NC(=O)C2CCN(C(=O)C(F)(F)c3ccccc3)CC2)n1` the “% Inhibition” value was -13% and the Z score was 2.09.
For `CCc1nc(CN2CCC(CNC(=O)c3sccc3C)CC2)n[nH]1`, the “% Inhibition” value was -12% and the Z score was 2.22.
In the case of `COC(=O)[C@@H]1CCCCN1C1CCCC1`, the “% Inhibition” value was -8% and the Z score was 1.29.
In the case of `FC(F)(F)Cc1noc(CN2CCOCc3ccccc32)n1`, the “% Inhibition” value was -15% and the Z score was 1.75.
In the case of `CC(C)Nc1nc2n(c(=O)n1)CCN2C(C)C`, the “% Inhibition” value was -8% and the Z score was 0.69.
For `COc1ccc(C(=O)N2[C@H](C(=O)NCc3ccccc3)COC23CCN(C(=O)c2ccccc2Cl)CC3)cc1`, the “% Inhibition” value was -21% and the Z score was 3.8.
For `CC(C)NC(=O)[C@@H]1C[C@@H](NCc2c(F)cccc2F)CN1C(C)C`, the “% Inhibition” value was -7% and the Z score was 1.21.
`CCc1ccc2ncn([C@H]3COC[C@@H]3O)c(=O)c2c1` was tested, and the “% Inhibition” value was 0% and the Z score was 0.09.
`CCOc1ncccc1CNC(=O)c1ccc2ccccc2n1` was tested, and the “% Inhibition” value was -19% and the Z score was 2.1.
For `CCC(NCC1CCCS1(=O)=O)c1cc(C)ccc1OC` (stereo not given), the “% Inhibition” value was -18% and the Z score was 2.74.
With `Clc1cccc2c1OCCN2Cc1cnc(N2CCOCC2)nc1` the “% Inhibition” value was -4% and the Z score was 0.45.
In the case of `CC(NC(=O)CN1C(CO)CCS1(=O)=O)c1cccs1` (stereo not given), the “% Inhibition” value was -13% and the Z score was 1.53.
`CC1(C)CN(C(=O)c2conc2C2CC2)C[C@H](CO)O1` was tested, and the “% Inhibition” value was -10% and the Z score was 2.01.
For `CCOc1cc(N(C)Cc2nnc3c(=O)n(C)ccn23)ncn1`, the “% Inhibition” value was -7% and the Z score was 1.21.
For `Cc1n[nH]c(NS(=O)(=O)c2c(Br)cnn2C)c1C`, the “% Inhibition” value was -34% and the Z score was 3.99.
In the case of `O=C(NCc1nc(C2CCOCC2)no1)c1cc(-c2ccc3c(c2)OCO3)n[nH]1`, the “% Inhibition” value was -21% and the Z score was 2.66.
`Cc1cccc(CC2CN(C(=O)c3n[nH]c4c3CCC4)C2)c1` was tested, and the “% Inhibition” value was -5% and the Z score was 0.98.
With `O=C(Nc1nc2ccc(NC(=O)c3cccs3)cc2s1)c1ccccc1` the “% Inhibition” value was -4% and the Z score was 0.36.
`NC(=O)c1cncc(Oc2nc(C(F)(F)F)cs2)c1` was tested, and the “% Inhibition” value was -2% and the Z score was 0.22.
For `C[C@H](NCC(=O)Nc1ccnn1C1CCCC1)c1ccc(F)c(F)c1`, the “% Inhibition” value was 7% and the Z score was -0.63.
`CCCC[C@H](CC)C(=O)N(C)Cc1nnc2c(=O)n(C)ccn12` was tested, and the “% Inhibition” value was -3% and the Z score was 0.55.

Source: ChEMBL document CHEMBL4888484, “Replenishing the malaria drug discovery pipeline: Screening and hit evaluation of the MMV Hit Generation Library 1 (HGL1) against asexual blood stage Plasmodium falciparum ,using a nano luciferase reporter read-out” (2022)
